# Test results as given in PubChem BioAssay AID1347417 (National Center for Advancing Translational Sciences (NCATS), 2020).
# Out of some 120,000 compounds screened, about 5,300 (4.4%) were called active. The shares of active, inactive and inconclusive entries below differ from those in the screen. The call rests on the fitted dose curve; in most records, active means well fitted inhibition curve with a large enough effect; inconclusive means small, poorly fitted or top-dose-only effect; inactive means no such curve, though single readings can be large or run the other way. Potencies beside an inconclusive call are fits to weak or partial responses and may not hold up.
# Test: qHTS Primary assay for Inhibitors of Plasmodium falciparum Dd2 growth in vitro; further: nearly all actives have a fitted effect of over 65% in size;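 on activity, negative = inhibition: plate controls were DMSO vehicle for no effect and reference drug for full effect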
# Conditions: P. falciparum Dd2 growth, SYBR Green, 72 h; activity, negative = inhibition: at 28.9 µM (top of the series) unless noted; series mostly up to 28.9 µM
# Method in brief: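 Readout: SYBR Green fluorescence, 485 nm excitation, 535 nm emission, after ~16 h lysis at 37C. Before that, Dd2-infected red cells (2.5% hematocrit) grew 72 h with compound, 29 uM top final concentration.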
# Potency means the concentration at half of the fitted maximal effect; tags describe the fitted curve by direction and shape.
SMILES,Potency,"activity, negative = inhibition"
O=C(NCc1ccc2c(c1)OCO2)c1ccc2c(c1)N(Cc1cccc(Cl)c1)C(=O)c1ccccc1S2=O (centres undefined),"inconclusive: 12.6 µM [inhibitor, single point]",–
Cc1cccc2nc(C(=O)N3CCC4(CC3)CC(c3ccccc3)CN(C)C4)cn12 (centres undefined),"inconclusive: 10 µM [inhibitor, partial curve]",–
CCn1ccnc1CN1CCCC(CCc2ccc(OC)cc2)C1 (centres undefined),"inconclusive: 8.91 µM [inhibitor, single point]",–
COc1cccc(CN2C(=O)c3ccccc3Sc3ccc(C(=O)NCCc4ccc(C)cc4)cc32)c1,"inconclusive: 11.2 µM [inhibitor, partial curve]",–
C=CCNC(=O)N[C@H]1CCN(C(=O)CC(C)(C)C)[C@@H]1C(=O)N[C@@H](C(=O)OC)C(C)C,inactive,–
CCOC(=O)c1ccc(N2CC3CCC(C2)N3CC(F)(F)F)nn1,inactive,–
CNC(=O)[C@@H]1CN(C(=O)c2ccc(Br)cc2F)C[C@H]1CO,inactive,–
CCc1cccc2c(C(CC(=O)N3CCCC3)c3ccc(Cl)c(Cl)c3)c[nH]c12 (centres undefined),"inconclusive: 2 µM [inhibitor, full curve]",–
CCc1csc(CNC(=O)c2ccc(N3CCSCC3)nc2)n1,inactive,–
O=C(NCc1ccccn1)c1ccc2c(c1)N(C(=O)c1ccc(F)cc1)CC2,"inconclusive: 3.98 µM [inhibitor, single point]",–
CC1=C[C@@H](CNS(=O)(=O)c2cccs2)[C@H](C(C)C)C[C@H]1CC(=O)NCc1ccc(C#N)cc1,inactive,–
O=C1CC(c2ccccc2)N(Cc2ccncc2)CCCN(Cc2ccccn2)CCN1 (centres undefined),"inconclusive: 11.2 µM [inhibitor, partial curve, poor fit]",–
Cc1ccc(CN2C[C@@H](CO)[C@H](c3nc(-c4ccncc4)no3)C2)cc1,"inconclusive: 17.8 µM [inhibitor, single point]",–
Cc1c(NC(=O)c2nc3ccccc3nc2N2CCCCC2)cccc1[N+](=O)[O-],"inconclusive: 11.2 µM [inhibitor, single point]",–
CN1C(=O)C2(CCN(C(=O)CCC3CCCC3)CC2)c2ccccc21,active: 5.62 µM,–
COC(=O)C1=C(C)N=C2SC=C(CC(=O)NCCc3cccs3)N2C1c1ccccc1Cl (centres undefined),"inconclusive: 10 µM [inhibitor, single point]",–
NC(=O)Cc1c[nH]c2ncc(-c3ccc(Cl)cc3)cc12,"inconclusive: 7.94 µM [inhibitor, full curve, poor fit]",–
CC(=O)C1=C(c2ccc(C)c(C)c2)N(C(C)=O)n2c(nnc2-c2ccc(Cl)cc2)S1,"inconclusive: 14.1 µM [inhibitor, single point]",–
Cc1cccc(CNC(=O)CCCn2c(=O)c3cccn3c3ccc(F)cc32)c1,"inconclusive: 17.8 µM [inhibitor, single point]",–
O=C(N[C@H]1CCN2C(=O)N(c3ccccc3)C(=O)[C@@H]2C1)C1CCCC1,inactive,–
Cc1cccc2c1-c1sc(C(=O)N(C)c3cccc(C(F)(F)F)c3)cc1CO2,"inconclusive: 10 µM [inhibitor, single point]",–
O=C1NCCCCCCN(C(=O)c2ccco2)[C@H]2CCCC[C@@H]12,inactive,–
CCn1cc(CN2CCC(N3CC(OCCOC)C34CCCCC4)CC2)cn1 (centres undefined),"inconclusive: 15.8 µM [inhibitor, single point]",–

SMILES,Potency,"activity, negative = inhibition"
COc1cccc(CC(=O)N2C[C@@H](CO)[C@H](c3nc(C4CC4)no3)C2)c1,"inconclusive: 11.2 µM [inhibitor, single point]",–
Cc1nn(C)c(C)c1C(=O)N1CCCC(c2ccc(C(=O)O)cc2)C1 (centres undefined),inactive,–
CC1=C[C@@H](CNC(=O)Nc2ccccc2)[C@H](C(C)C)C[C@H]1CC(=O)NCCN(C)C,"inconclusive: 3.55 µM [inhibitor, partial curve, poor fit]",–
Cc1ccc(CN(Cc2ccco2)C(=O)COc2ccc(C(C)C)cc2)cc1,"inconclusive: 11.2 µM [inhibitor, single point]",–
O=C1NC(C(=O)NCCCn2cccn2)Cn2cccc21 (centres undefined),inactive,–
CCCCN(CC)CCCNC(=O)c1cc2c(=O)[nH]c3ccccc3c2s1,"inconclusive: 17.8 µM [inhibitor, single point]",–
O=C(c1cccs1)N1CCC(Oc2cccnc2)C1 (centres undefined),"inconclusive: 10 µM [inhibitor, single point]",–
CCc1noc(-c2ccn3c(CNC(=O)c4cc(Cl)ccc4F)nnc3c2)n1,inactive,–
CCNC(=O)N1CCCC1C(=O)Nc1ccccc1-c1ccc(OC)cc1 (centres undefined),inactive,–
CCO[C@H]1CN(C(=O)c2cnc(Nc3ccccc3)nc2)C[C@@H]1O,inactive,–
Cc1ccc2nc(N(Cc3cccnc3)C(=O)CCS(=O)(=O)c3ccccc3)sc2c1,inactive,–
CC(=O)c1ccc(NC(=O)CSc2nc(-c3cccc(F)c3)nc3c2c(=O)n(C)c(=O)n3C)cc1,–,inconclusive: -45.7% [inhibitor] [at 0.594 µM]
CCn1cc(C(=O)N2CCN(c3ccc(C(C)=O)cc3)CC2)c2cc(OC)c(OC)cc2c1=O,"inconclusive: 11.2 µM [inhibitor, single point]",–
CCOC(=O)C(C)NC(=O)c1c(C)oc2ncn(CC(C)C)c(=O)c12 (centres undefined),inactive,–
O=C(c1ccc2c(c1)OCO2)N1CCC(n2cc(-c3nc(-c4ccccc4)no3)nn2)CC1,"inconclusive: 2.82 µM [inhibitor, single point]",–
CCOc1cccc(C2c3c(-c4cc(C)ccc4O)n[nH]c3C(=O)N2Cc2ccco2)c1 (centres undefined),active: 10 µM,–
COc1ccc(OC)c(CCNC(=O)c2csc3c2CCCCC3)c1,inactive,–
COc1ccc(C(=O)N2CCC3(CC2)CC(C(C)C)=NO3)cc1,"inconclusive: 0.282 µM [inhibitor, full curve, poor fit]",–
O=C(CCc1ccccc1Cl)N1CCn2nc(Cc3ccccc3)cc2C1,inactive,–
O=C(COc1ccc(-c2nnc3n2CCCC3)cc1)Nc1ccc(Cl)cc1,"inconclusive: 4.47 µM [inhibitor, partial curve, poor fit]",–
COc1ccc(CC(=O)N2CC[C@H]3CC(=O)N(CCN4CCOCC4)CC[C@H]3C2)cc1,inactive,–
CCCN1CCC(CC(=O)N2CCCC(N3CCN(c4ccc(F)cc4)CC3)C2)CC1 (centres undefined),"inconclusive: 6.31 µM [inhibitor, partial curve, poor fit]",–
Cc1cn2nc(C(=O)N3CCC(C)CC3)cc2c(N(C)Cc2ccccc2)n1,active: 11.2 µM,–

SMILES,Potency,"activity, negative = inhibition"
Cc1ocnc1C(=O)N1CCC2(CC1)c1nc[nH]c1CCN2S(C)(=O)=O,inactive,–
CCc1ccc(C(=O)NCc2nnc3cc(-c4nc(C(C)C)no4)ccn23)cc1,"inconclusive: 11.2 µM [inhibitor, single point]",–
O=C(CCS(=O)(=O)c1cccc2nsnc12)Nc1ccc(F)cc1,inactive,–
Cc1ccc(Cl)cc1NC(=O)C(=O)NCC(c1cccnc1)N1CCc2ccccc21 (centres undefined),"inconclusive: 11.2 µM [inhibitor, single point]",–
COc1ncccc1CNC[C@H]1Cn2c(-c3ccc(Cl)cc3)cnc2CO1,"inconclusive: 5.62 µM [inhibitor, single point]",–
Cc1ccc(Cl)cc1N1CCN(CCNC(=O)Nc2ccccc2Cl)CC1,"inconclusive: 10 µM [inhibitor, single point]",–
CC(C)NC(=O)C1CCc2nnc(C3CCN(C(=O)c4ccc(Cl)cc4Cl)CC3)n21 (centres undefined),–,inconclusive: -33.3% [inhibitor]
Cc1ccc(S(=O)(=O)Nc2ccc(C)n(CC(=O)NCc3ccccc3)c2=O)cc1,inactive,–
O=[S+]1([O-])NC2(CCN(Cc3ccsc3)C2)COc2ccncc21 (centres undefined),–,inconclusive: -50.1% [inhibitor]
COc1ccccc1N1CCN(C(=O)CN2C(=O)COc3ccc(S(=O)(=O)N4CCC(C)CC4)cc32)CC1,"inconclusive: 17.8 µM [inhibitor, single point]",–
Cc1ccc(NC(=O)C2CCN(c3cc(C)nc4c(-c5ccc(Cl)cc5)c(C)nn34)CC2)c(C)c1,inactive,–
Cc1ccc(NC(=O)N2CC(c3nnc(-c4ccncc4)o3)C3(CCOCC3)C2)cc1C (centres undefined),"inconclusive: 10 µM [inhibitor, single point]",–
O=C(Cc1ccc(F)cc1)N1CCn2c(nnc2-c2ccccc2)C1,"inconclusive: 2.82 µM [inhibitor, full curve, poor fit]",–
COc1ccc(F)c(CN2CCCC(O)(CN3CCC(C)CC3)C2=O)c1 (centres undefined),active: 3.98 µM,–
O=C1NCCCCCN(C(=O)c2ccccn2)[C@H]2CCC[C@@H]12,inactive,–
COc1cc2[nH]c(=O)n(CCCC(=O)N3CCN(c4cccc(C(F)(F)F)c4)CC3)c(=O)c2cc1OC,inactive,–
O=C(C1CC(=O)N(c2n[nH]c3cc(Br)ccc23)C1)N1CCCC1 (centres undefined),inactive,–
Cc1ccc(C)c(NC(=O)Cn2c(N3CCCCC3)nc(C)c(C)c2=O)c1,inactive,–
Cc1ccccc1C(=O)Nc1cc(-c2ccc(Cl)cc2)nn1-c1ccccc1,"inconclusive: 20 µM [inhibitor, partial curve, poor fit]",–
Cc1cc(=O)n(CC(=O)Nc2ccc(C)c(F)c2)c(N2CCc3ccccc3C2)n1,"inconclusive: 0.316 µM [inhibitor, full curve, poor fit]",–
COc1cc2c(cc1CCc1ccccc1)N(C(=O)c1ccnn1C)CC21CCN(C(C)=O)CC1,"inconclusive: 1.78 µM [inhibitor, single point]",–
O=C(NCc1cccnc1)C1(CCO)CC12CCOCC2 (centres undefined),inactive,–
COCCNC(=O)[C@@H]1C[C@H](Oc2cccnc2)CN1C(=O)c1sc(C)nc1C,inactive,–
